Experimental data taken from PMC2982839.
No constants are given. Whether binding was seen depends on the method and setting. Binding seen in cells or lysates may run through a third protein. Some results given as binding are weak or reduced against the parent protein; the word gives no strength. For some assays here: Where a sequence is shown, tags or fusion partners need not be part of it. One block for each molecule: values may come before it.

Chains of the proteins cited; added tags and fusions are not shown.
UniProt Q6WKZ8: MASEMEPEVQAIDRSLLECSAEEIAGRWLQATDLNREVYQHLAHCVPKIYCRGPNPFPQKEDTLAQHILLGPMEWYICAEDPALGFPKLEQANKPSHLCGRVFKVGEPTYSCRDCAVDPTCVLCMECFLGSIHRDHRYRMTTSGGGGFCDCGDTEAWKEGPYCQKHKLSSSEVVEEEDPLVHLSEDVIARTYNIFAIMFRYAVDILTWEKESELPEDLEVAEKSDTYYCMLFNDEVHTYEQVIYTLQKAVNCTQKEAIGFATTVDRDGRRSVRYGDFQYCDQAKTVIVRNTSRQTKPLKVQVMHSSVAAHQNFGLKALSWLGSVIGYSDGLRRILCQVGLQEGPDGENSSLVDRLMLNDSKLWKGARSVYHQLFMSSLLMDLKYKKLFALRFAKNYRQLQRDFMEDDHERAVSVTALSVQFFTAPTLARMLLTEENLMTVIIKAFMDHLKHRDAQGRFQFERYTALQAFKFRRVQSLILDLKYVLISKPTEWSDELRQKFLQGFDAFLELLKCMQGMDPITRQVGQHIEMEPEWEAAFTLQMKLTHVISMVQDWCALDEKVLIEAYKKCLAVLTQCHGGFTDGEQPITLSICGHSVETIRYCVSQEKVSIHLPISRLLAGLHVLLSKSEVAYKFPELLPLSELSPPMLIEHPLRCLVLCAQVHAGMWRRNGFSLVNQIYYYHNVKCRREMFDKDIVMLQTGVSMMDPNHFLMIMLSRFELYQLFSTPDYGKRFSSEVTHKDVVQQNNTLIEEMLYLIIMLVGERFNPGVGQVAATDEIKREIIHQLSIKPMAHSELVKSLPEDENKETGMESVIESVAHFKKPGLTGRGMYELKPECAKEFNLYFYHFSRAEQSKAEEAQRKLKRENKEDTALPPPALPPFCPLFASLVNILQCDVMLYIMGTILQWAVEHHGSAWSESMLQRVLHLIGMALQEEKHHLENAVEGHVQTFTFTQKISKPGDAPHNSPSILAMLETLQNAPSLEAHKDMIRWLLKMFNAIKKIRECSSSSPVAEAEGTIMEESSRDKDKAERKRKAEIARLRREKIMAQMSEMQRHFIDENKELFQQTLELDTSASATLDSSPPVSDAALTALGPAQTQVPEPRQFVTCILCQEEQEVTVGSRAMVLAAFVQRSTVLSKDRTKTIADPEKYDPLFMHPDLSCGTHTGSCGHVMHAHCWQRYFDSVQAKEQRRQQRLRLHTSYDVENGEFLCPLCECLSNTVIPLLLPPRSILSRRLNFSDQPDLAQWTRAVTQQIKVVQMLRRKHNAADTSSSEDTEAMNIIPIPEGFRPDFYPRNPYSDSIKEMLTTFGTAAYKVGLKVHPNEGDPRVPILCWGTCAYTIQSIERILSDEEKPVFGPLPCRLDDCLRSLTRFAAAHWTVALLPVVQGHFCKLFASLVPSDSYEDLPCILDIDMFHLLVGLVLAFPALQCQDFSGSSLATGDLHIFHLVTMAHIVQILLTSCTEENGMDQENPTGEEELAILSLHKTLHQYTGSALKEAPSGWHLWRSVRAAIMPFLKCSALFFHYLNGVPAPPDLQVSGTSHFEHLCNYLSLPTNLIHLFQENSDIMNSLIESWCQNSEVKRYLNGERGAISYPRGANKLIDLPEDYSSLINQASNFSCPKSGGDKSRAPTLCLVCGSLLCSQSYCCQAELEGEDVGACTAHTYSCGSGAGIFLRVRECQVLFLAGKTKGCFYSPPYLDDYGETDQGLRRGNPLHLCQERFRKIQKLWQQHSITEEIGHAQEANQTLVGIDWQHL

Columns and labels:
[1] = biological target: T1, Tex19.1 (mouse (endogenous in testis)) (UniProt Q99MV2); test: co-IP; IP from testicular extracts of 20-day-old wild type and Tex19.1-/- mice with anti-Tex19.1 or anti-Ubr2 antibody, then western blot
T1 sequence: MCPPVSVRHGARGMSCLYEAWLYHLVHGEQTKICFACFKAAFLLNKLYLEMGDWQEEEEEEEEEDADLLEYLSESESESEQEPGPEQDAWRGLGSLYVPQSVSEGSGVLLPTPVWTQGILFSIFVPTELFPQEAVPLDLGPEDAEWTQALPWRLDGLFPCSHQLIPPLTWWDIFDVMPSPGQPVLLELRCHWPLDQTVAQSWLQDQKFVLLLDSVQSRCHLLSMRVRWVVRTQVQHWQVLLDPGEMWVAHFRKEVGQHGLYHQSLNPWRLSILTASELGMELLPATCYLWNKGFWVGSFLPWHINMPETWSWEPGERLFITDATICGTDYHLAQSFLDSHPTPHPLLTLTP

[2] = biological target: T2, C2G-Tex19.1 (mouse) (UniProt Q99MV2); test: co-IP; co-transfection of NIH3T3 cells; IP and western blot with anti-V5, anti-Tex19.1 and anti-Ubr2 antibodies
T2 sequence: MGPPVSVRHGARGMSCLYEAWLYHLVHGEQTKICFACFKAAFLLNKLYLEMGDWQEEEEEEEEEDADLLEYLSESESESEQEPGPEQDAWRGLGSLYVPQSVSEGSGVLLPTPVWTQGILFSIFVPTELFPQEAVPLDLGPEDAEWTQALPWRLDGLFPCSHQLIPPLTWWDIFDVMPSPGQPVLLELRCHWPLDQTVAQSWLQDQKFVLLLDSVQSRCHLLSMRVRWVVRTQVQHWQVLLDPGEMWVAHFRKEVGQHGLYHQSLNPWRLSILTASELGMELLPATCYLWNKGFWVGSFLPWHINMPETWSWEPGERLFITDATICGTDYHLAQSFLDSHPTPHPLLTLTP

[3] = biological target: T3, C2V-Tex19.1 (mouse) (UniProt Q99MV2); test: as above
T3 sequence: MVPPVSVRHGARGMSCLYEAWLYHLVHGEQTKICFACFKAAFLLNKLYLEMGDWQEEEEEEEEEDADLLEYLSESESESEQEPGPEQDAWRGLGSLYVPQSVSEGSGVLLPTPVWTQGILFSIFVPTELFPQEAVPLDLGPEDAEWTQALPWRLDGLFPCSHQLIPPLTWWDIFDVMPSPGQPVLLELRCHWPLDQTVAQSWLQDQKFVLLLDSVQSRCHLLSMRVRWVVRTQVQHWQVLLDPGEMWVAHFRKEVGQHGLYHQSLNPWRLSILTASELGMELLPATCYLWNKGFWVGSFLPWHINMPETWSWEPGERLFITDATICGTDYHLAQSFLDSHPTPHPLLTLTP

[4] = biological target: T4, Tex19.1C (mouse) (UniProt Q99MV2); test: as above
T4 sequence: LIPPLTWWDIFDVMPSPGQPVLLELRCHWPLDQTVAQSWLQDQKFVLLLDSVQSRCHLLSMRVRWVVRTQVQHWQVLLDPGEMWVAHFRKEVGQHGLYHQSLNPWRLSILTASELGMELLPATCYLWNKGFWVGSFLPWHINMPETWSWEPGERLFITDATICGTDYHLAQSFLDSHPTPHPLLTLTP

[5] = biological target: T5, Tex19.1N (mouse) (UniProt Q99MV2); test: as above
T5 sequence: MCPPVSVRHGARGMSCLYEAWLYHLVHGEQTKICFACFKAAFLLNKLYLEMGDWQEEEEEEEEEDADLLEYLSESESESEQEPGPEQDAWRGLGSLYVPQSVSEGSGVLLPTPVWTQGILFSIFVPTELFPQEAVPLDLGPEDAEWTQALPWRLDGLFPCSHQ

[6] = biological target: T6, V5-tagged Tex19.1 (wild type) (mouse) (UniProt Q99MV2); test: as above
T6 sequence: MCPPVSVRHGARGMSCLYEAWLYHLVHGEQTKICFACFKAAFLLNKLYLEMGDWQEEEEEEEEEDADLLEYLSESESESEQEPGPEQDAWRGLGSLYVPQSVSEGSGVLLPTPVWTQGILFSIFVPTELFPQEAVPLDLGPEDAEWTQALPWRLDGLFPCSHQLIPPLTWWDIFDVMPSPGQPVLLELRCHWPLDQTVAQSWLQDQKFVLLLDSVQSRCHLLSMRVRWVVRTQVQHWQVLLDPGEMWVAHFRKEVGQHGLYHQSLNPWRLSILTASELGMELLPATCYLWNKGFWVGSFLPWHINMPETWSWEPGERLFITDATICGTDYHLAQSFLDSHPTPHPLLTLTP

[7] = biological target: T7, V5-tagged Tex19.2 (mouse) (UniProt Q9D5S1); test: as above
T7 sequence: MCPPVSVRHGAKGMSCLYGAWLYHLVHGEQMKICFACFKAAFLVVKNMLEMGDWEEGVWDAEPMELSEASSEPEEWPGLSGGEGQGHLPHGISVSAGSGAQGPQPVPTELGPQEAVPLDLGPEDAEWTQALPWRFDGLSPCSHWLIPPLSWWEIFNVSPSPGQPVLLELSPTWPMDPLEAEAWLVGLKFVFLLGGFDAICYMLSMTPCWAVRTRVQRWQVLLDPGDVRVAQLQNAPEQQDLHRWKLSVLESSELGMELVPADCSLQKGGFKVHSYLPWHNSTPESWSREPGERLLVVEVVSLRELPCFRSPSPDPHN

[8] = biological target: Ubr2 (mouse (endogenous in testis)) (UniProt Q6WKZ8); test: co-IP; IP from testicular extracts of 20-day-old wild type and Tex19.1-/- mice with anti-Tex19.1 or anti-Ubr2 antibody, then western blot

binding [1]: binds
Molecule: Ubr2 (from UniProt Q6WKZ8 1-1755)

binding [2]: binds | binding [3]: binds | binding [4]: no binding | binding [5]: binds | binding [6]: binds | binding [7]: binds
Molecule: Ubr2 (untagged, transfected) (from UniProt Q6WKZ8 1-1755)

binding [8]: binds
B1: Tex19.1 (protein, UniProt Q99MV2 1-351)
chain: MCPPVSVRHGARGMSCLYEAWLYHLVHGEQTKICFACFKAAFLLNKLYLEMGDWQEEEEEEEEEDADLLEYLSESESESEQEPGPEQDAWRGLGSLYVPQSVSEGSGVLLPTPVWTQGILFSIFVPTELFPQEAVPLDLGPEDAEWTQALPWRLDGLFPCSHQLIPPLTWWDIFDVMPSPGQPVLLELRCHWPLDQTVAQSWLQDQKFVLLLDSVQSRCHLLSMRVRWVVRTQVQHWQVLLDPGEMWVAHFRKEVGQHGLYHQSLNPWRLSILTASELGMELLPATCYLWNKGFWVGSFLPWHINMPETWSWEPGERLFITDATICGTDYHLAQSFLDSHPTPHPLLTLTP
